Measured values: PubChem BioAssay AID686970 (National Center for Advancing Translational Sciences (NCATS), 2013)
The whole screen tested about 360,000 compounds, of which about 6,000 (1.7%) were called active. The shares of active, inactive and inconclusive entries below differ from those in the screen. The call rests on the fitted dose curve; in most records, active means well fitted cell-killing curve with a large enough effect; inconclusive means small, poorly fitted or top-dose-only effect, or effect the other way; inactive means flat fitted curve, though single readings scatter. No potency is given beside an inconclusive call; the fits are too rough.
Potency means the concentration at half of the fitted maximal effect; tags describe the fitted curve by direction and shape.

Experiment: qHTS for induction of synthetic lethality in tumor cells producing 2HG: qHTS for the HT-1080-NT fibrosarcoma cell line;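 further: NT is the 2HG producing partner of a matched IDH1 knockdown line; nearly all actives have a fitted effect of over 55% in size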;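 on activity, negative = less viability: 0% = DMSO-treated cells and -100% = media-only wells without cells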
Conditions: HT-1080-NT fibrosarcoma viability, CellTiter-Glo ATP luminescence, 48 h; activity, negative = less viability: at 46.1 µM (top of the series) unless noted
Method in brief: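 A 48-hour cytotoxicity screen used HT-1080-NT cells plated 2 hours before compound delivery. ATP-based CellTiter-Glo luminescence measured viability, normalized to DMSO and no-cell controls.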
In the case of CC(=O)NC(c1ccc(C)cc1)c1cc([N+](=O)[O-])c2cccnc2c1O (centres undefined), the activity, negative = less viability is reported as inconclusive: -31.3% [cytotoxic]. In the case of C=CCn1c(SCc2csc(C)n2)nc2sc3c(c2c1=O)CCCCC3, the Potency is reported as inconclusive [rising, single point]. With Nc1c(C(O)(C(F)(F)F)C(F)(F)F)ccc2ccccc12 the Potency was inconclusive [cytotoxic, single point]. With C[C@H]1CCC/C=C/[C@@H]2C[C@H](O)C[C@H]2[C@H](O)[C@H](S(=O)c2ccc(O)cc2)CC(=O)O1 (some centres undefined) the Potency was inconclusive [cytotoxic, full curve]. In the case of NNC(=O)c1ccc(-c2cccc([N+](=O)[O-])c2)o1, the activity, negative = less viability is reported as inconclusive: 17.9%. In the case of Cc1cccc(C)c1OCc1cc(C(=O)N2CCC(c3ccncc3)CC2)no1, the Potency is reported as inconclusive [cytotoxic, single point]. For COc1ccccc1N1CCN(S(=O)(=O)CCNC(=O)/C=C/c2ccc3c(c2)OCO3)CC1, the Potency was inconclusive [cytotoxic, single point]. For Cn1c(=O)c2c(ncn2Cc2ccccc2)n(C)c1=O, the Potency was “inactive”. For Cc1ccc(SCC(=O)OCC(=O)N(CC(C)C)c2c(N)n(Cc3ccccc3)c(=O)[nH]c2=O)cc1C, the Potency was inconclusive [cytotoxic, partial curve]. For COc1ccc(Cc2nc3ccc(C(=O)NCCc4cccc(C)n4)cc3o2)cc1, the Potency was “inactive”. For CCOC(=O)N1CCN(C(=O)c2cn(C)c(=O)c3c2c2ccccc2n3C)CC1, the Potency was inconclusive [cytotoxic, single point]. In the case of NC(=O)c1cc2ccc(O)cc2oc1=NCc1ccccc1, the activity, negative = less viability is reported as inactive: -0.87% [at 9.24 µM]. With COc1cccc(C2c3cc4c(cc3OC(NNC(N)=O)C2C)OCO4)c1O (centres undefined) the Potency was active: 4.61 µM. For C=CCc1cc(Cl)ccc1OCCOCCN(C)C, the Potency was inconclusive [cytotoxic, single point]. For O=C(Nc1nc2cc3c(cc2s1)OCO3)C1CCCCC1, the Potency was inconclusive [cytotoxic, single point]. For CCOC(=O)N1CCN(S(=O)(=O)c2ccc(C(=O)Nc3sc4c(c3C(=O)OC)CCN(C)C4)cc2)CC1, the Potency was active: 18.4 µM. With Cc1nn(Cc2cccc(C(=O)Nc3ccn(Cc4ccccc4F)n3)c2)c(C)c1[N+](=O)[O-] the activity, negative = less viability was inactive: -1.32% [at 9.24 µM]. With O=c1sc(/C=N/Nc2ccccc2)c(Cl)n1Cc1ccccc1 the Potency was active: 14.6 µM. For CCOc1ccc(C(C(=O)NC2CCCC2)N(Cc2ccccc2)C(=O)c2nsc(Cl)c2Cl)cc1 (centres undefined), the Potency was inconclusive [cytotoxic, single point].
